In the supplement of paper PMC9446081:
Out of some 39,000 compounds screened, about 220 (0.56%) showed activity. Some of the results follow.

system: Escherichia coli K-12 BW25113; experiment: relative growth (OD600 normalised to plate interquartile mean) (fraction); higher = less growth inhibition, active = 0.2 or less; conditions: 50 µM; LB; incubation time: overnight (16-24 h)
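Note: static incubation at 37 °C against the wild-type strain, values averaged over two biological replicates.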

SMILES | relative growth
CC(C)NC(=O)N(C)C[C@@H]1Oc2ccc(NC(=O)CCN3CCOCC3)cc2C(=O)N([C@@H](C)CO)C[C@H]1C | inactive: 0.996
CCCn1cnnc1[C@@H](C)N | inactive: 1.01
Cc1noc(C)c1NC(=O)Nc1ccc2c(c1)C(=O)N([C@@H](C)CO)C[C@H](C)[C@H](CN(C)Cc1ccc(Cl)c(Cl)c1)O2 | inactive: 0.996
COCC#Cc1ccc2c(c1)O[C@@H](CN(C)S(=O)(=O)c1ccc(C)cc1)[C@@H](C)CN([C@H](C)CO)S2(=O)=O | inactive: 1.02
C/C=C/c1cnc2c(c1)C(=O)N([C@@H](C)CO)C[C@H](C)[C@@H](CN(C)S(=O)(=O)c1ccc(OC)cc1)O2 | inactive: 1.03
COc1ccc(S(=O)(=O)N(C)C[C@H]2Oc3ccc(NC(=O)Nc4c(C)noc4C)cc3CC(=O)N([C@H](C)CO)C[C@H]2C)cc1 | inactive: 1.02
C[C@@H]1CN([C@H](C)CO)C(=O)c2cccc(NC(=O)Nc3ccccc3)c2O[C@H]1CN(C)Cc1ccc(C(=O)Nc2ccccc2N)cc1 | inactive: 0.957
CC(C)C[C@@H]1NC(=O)[C@H]2C[C@@H](C(=O)NCCCCCC[N+](C)(C)C)[C@@H](c3cccc(OCCO)c3)N2C1=O | inactive: 0.998
CCc1ccc(/C=C2\SC(=O)N(CCCCCCNC(=O)c3ccc(Nc4ccc([N+](=O)[O-])c5nonc45)cc3)C2=O)cc1 | inactive: 1.05
COc1ccc(CNC(=O)C[C@H]2C[C@H]3c4cc(NC(=O)NC5CCCC5)ccc4O[C@H]3[C@H](CO)O2)cc1 | inactive: 0.99
C[C@@H]1CN([C@H](C)CO)C(=O)c2cc(NC(=O)Nc3ccc(C(F)(F)F)cc3)ccc2O[C@@H]1CN(C)Cc1ccc(Oc2ccccc2)cc1 | inactive: 0.993
COc1cccc(S(=O)(=O)Nc2ccc3c(c2)OC[C@@H](C)N(C(=O)Cc2cccnc2)C[C@@H](C)[C@H](OC)CN(C)C3=O)c1 | inactive: 1.01
COc1ccccc1CNC(=O)C[C@@H]1C[C@@H]2c3cc(NC(=O)c4cccnc4)ccc3O[C@@H]2[C@@H](CO)O1 | inactive: 0.941
Cc1noc(C)c1NC(=O)Nc1ccc2c(c1)C(=O)N([C@H](C)CO)C[C@@H](C)[C@@H](CN(C)S(=O)(=O)c1c(C)noc1C)O2 | inactive: 1.01
C[C@H]1CN([C@@H](C)CO)C(=O)c2cc(NC(=O)Nc3ccccc3)ccc2O[C@@H]1CN(C)C(=O)Nc1cccc2ccccc12 | inactive: 0.969
c1ccc(Cn2c(-c3ccc(OC[C@H](C4CCNCC4)n4c(-c5ccccc5)nc5ccccc54)cc3)nc3ccccc32)cc1 | inactive: 0.723
C[C@@H]1CN([C@H](C)CO)C(=O)c2cc(NC(=O)CCC(F)(F)F)ccc2O[C@@H]1CN(C)Cc1ccc(C(F)(F)F)cc1 | inactive: 0.977
C[C@H](CO)N1C[C@H](C)[C@H](CN(C)Cc2ccc(-c3ccccc3)cc2)Oc2ccc(NC(=O)Nc3ccccc3)cc2C1=O | inactive: 0.991
Cc1ccc(S(=O)(=O)N(C)C[C@@H]2Oc3ccc(NS(=O)(=O)c4ccccc4)cc3C(=O)N([C@H](C)CO)C[C@@H]2C)cc1 | inactive: 1.01
CCn1c(C)cn2c3c(=O)n(CCN4CCOCC4)c(=O)n(C)c3nc12 | inactive: 1.02
C[C@H](CO)N1C[C@H](C)[C@H](CN(C)CC2CCOCC2)Oc2cc(C#Cc3ccccc3F)ccc2S1(=O)=O | inactive: 1.01

SMILES | relative growth
Cc1noc(C)c1S(=O)(=O)Nc1cccc2c1O[C@H](CN(C)S(=O)(=O)c1ccccc1)[C@H](C)CN([C@@H](C)CO)C2=O | inactive: 1.02
C[C@H](CO)N1C[C@H](C)[C@@H](CN(C)C(=O)Cc2ccncc2)Oc2cc(C#CC3CCCC3)ccc2S1(=O)=O | inactive: 0.958
CS(=O)(=O)c1ccc(C#N)cc1 | inactive: 1.01
COc1ccc(NC(=O)N(C)C[C@H]2OCCCC[C@@H](C)Oc3ccc(NC(=O)CCC(F)(F)F)cc3C(=O)N([C@@H](C)CO)C[C@@H]2C)cc1 | inactive: 1.01
Cc1noc(C)c1NC(=O)Nc1ccc2c(c1)C(=O)N([C@@H](C)CO)C[C@H](C)[C@H](CN(C)C(=O)C1CCCCC1)OCCCC[C@@H](C)O2 | inactive: 0.961
CNC(=O)C[C@H]1CC[C@@H]2[C@H](COC[C@@H](O)CN2C(=O)c2ccccn2)O1 | inactive: 0.993
CC(=O)N(C)C[C@H]1Oc2ncc(C#C[C@@H](C)O)cc2C(=O)N([C@@H](C)CO)C[C@H]1C | inactive: 1.02
C[C@H](CO)N1C[C@H](C)[C@H](CN(C)C(=O)Cc2ccccc2)Oc2cc(-c3cncnc3)ccc2S1(=O)=O | inactive: 1.02
CN(C)C(=O)c1cccc(-c2cccc(-c3nc(C(=O)NC4CCCCC4)cc4c3[C@@H](CCO)N([S@](=O)C(C)(C)C)C4)c2)c1 | inactive: 1.02
CC(C)NC(=O)Nc1ccc2c(c1)CC(=O)N([C@@H](C)CO)C[C@H](C)[C@H](CN(C)Cc1ccc3c(c1)OCO3)O2 | inactive: 0.997
Cc1c(C)n2c3c(=O)n(C)c(=O)n(C)c3nc2n1CCO | inactive: 1.01
CN(C)C(CCOc1cccc2ccccc12)c1ccccc1.Cl (stereo not drawn) | inactive: 0.686
Cc1ccc(S(=O)(=O)NCC[C@H]2CC[C@H](NS(=O)(=O)c3ccccc3Cl)[C@@H](CO)O2)cc1 | inactive: 1.03
CC(C)NC(=O)Nc1ccc2c(c1)CC(=O)N([C@@H](C)CO)C[C@H](C)[C@H](CN(C)S(=O)(=O)c1cccs1)O2 | inactive: 1.03
c1ccc(CNc2ccc3c(ccc4c5ccccc5[nH]c34)n2)cc1 | inactive: 0.99
Cc1ccc(S(=O)(=O)N(C)C[C@@H]2Oc3ccc(N(C)C)cc3CC(=O)N([C@@H](C)CO)C[C@@H]2C)cc1 | inactive: 1.02
COc1ccc(S(=O)(=O)N2C[C@H](O)COC[C@H]3O[C@@H](CC(=O)NCc4ccc(Cl)c(Cl)c4)CC[C@@H]32)cc1 | inactive: 1.01
COc1ccc(S(=O)(=O)Nc2ccc3c(c2)C(=O)N([C@H](C)CO)C[C@@H](C)[C@H](CN(C)C(=O)Nc2ccccc2)OCCCC[C@@H](C)O3)cc1 | inactive: 1
C[C@H]1CN([C@@H](C)CO)C(=O)c2cccc(NS(=O)(=O)c3ccc(Cl)cc3)c2O[C@H]1CN(C)S(C)(=O)=O | inactive: 1.01
Cc1noc(C)c1NC(=O)N[C@@H]1CC[C@H](CC(=O)N2CCN(C)CC2)O[C@H]1CO | inactive: 1.03
C[C@H]1CN([C@@H](C)CO)C(=O)c2cc(NC(=O)Cc3ccccc3)ccc2O[C@@H]1CN(C)S(C)(=O)=O | inactive: 0.975

SMILES | relative growth
Cc1cccc(S(=O)(=O)N2C[C@H](O)COC[C@@H]3O[C@H](CC(=O)NCCCN4CCOCC4)CC[C@H]32)c1 | inactive: 1
COc1ccc(NC(=O)N(C)C[C@@H]2Oc3ccc(NC(=O)Nc4ccc(C(F)(F)F)cc4)cc3C(=O)N([C@@H](C)CO)C[C@H]2C)cc1 | inactive: 1.03
C[C@H]1CN([C@@H](C)CO)C(=O)c2cccc(NC(=O)Nc3ccc4c(c3)OCO4)c2O[C@@H]1CN(C)C(=O)Nc1cccc2ccccc12 | inactive: 0.976
CC(C)NC(=O)Nc1ccc2c(c1)C(=O)N([C@@H](C)CO)C[C@H](C)[C@@H](CN(C)Cc1ccc(C(=O)O)cc1)O2 | inactive: 1.01
COCC#Cc1ccc2c(c1)O[C@@H](CN(C)C(=O)C1CCOCC1)[C@@H](C)CN([C@@H](C)CO)S2(=O)=O | inactive: 1
C[C@@H]1CN([C@H](C)CO)C(=O)c2cc(NC(=O)Nc3ccccc3)ccc2O[C@@H]1CN(C)Cc1ccc(C(=O)Nc2ccccc2N)cc1 | inactive: 0.975
CC1(COc2ccc3c(c2)ncn3-c2ccc3cccc(N4CCC(N)CC4)c3n2)COC1 | inactive: 1.02
C=CCC[C@@H](Cc1ccc(F)cc1)C(=O)OC[C@@H](NC(=O)[C@@H](CC=C)CC(=O)N(CCO)Cc1ccccc1)c1ccccc1 | inactive: 1.08
C[C@@H]1CCCCO[C@@H](CN(C)C(=O)Nc2ccccc2)[C@H](C)CN([C@H](C)CO)C(=O)c2cc(NC(=O)c3ccccc3)ccc2O1 | inactive: 0.99
C[C@@H]1CN([C@H](C)CO)C(=O)c2cc(NC(=O)CCC(F)(F)F)ccc2O[C@@H](C)CCCCO[C@@H]1CN(C)C(=O)Cc1ccccc1 | inactive: 0.965
O=C(O)Cn1c(=O)oc2ccccc21 | inactive: 0.99
CN(C)CCC=C1c2ccccc2COc2ccccc21.Cl | inactive: 1.03
C[C@@H]1CN([C@H](C)CO)C(=O)Cc2cc(NC(=O)Cc3cn(C)c4ccccc34)ccc2O[C@@H]1CN(C)Cc1ccc(Oc2ccccc2)cc1 | inactive: 1.02
COc1ccccc1C#Cc1cnc2c(c1)C(=O)N([C@H](C)CO)C[C@@H](C)[C@@H](CN(C)C(=O)CN(C)C)O2 | inactive: 1
COCC(=O)Nc1ccccc1C(=O)O | inactive: 1.02
C[C@@H]1CN([C@H](C)CO)C(=O)c2ccccc2-c2ccccc2CO[C@@H]1CN(C)Cc1cccc(C(F)(F)F)c1 | inactive: 1.04
N=C(N)S/C=C\C(=O)O | inactive: 0.992
CC(C)C[C@H](N)C(=O)N[C@@H](C)C(=O)O | inactive: 1.02
COc1cccc(S(=O)(=O)Nc2ccc3c(c2)[C@@H]2C[C@H](CC(=O)NC4CCCCC4)O[C@@H](CO)[C@@H]2O3)c1 | inactive: 1
FC(F)(F)c1nc2ccccc2[nH]1 | inactive: 0.98
C[C@H](CO)N1C[C@H](C)[C@@H](CN(C)S(C)(=O)=O)Oc2ccc(NC(=O)NC3CCCCC3)cc2C1=O | inactive: 1
